# Laboratory results reported in PubChem BioAssay AID488969 (Vanderbilt High Throughput Screening Facility, 2010).
# Over roughly 110,000 compounds, “z-score” has its median near -0.1; the highest 2% begin near 2. Some of the results follow. Activity calls are given as the source filed them.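 The calls were made as follows: active = z-score in the third read window above 3 or below -3; inactive = the rest.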
# Molecular target: Metabotropic glutamate receptor 8 (Rattus norvegicus) (UniProt P70579)
# Assay: rat mGluR8 modulators via GIRK flux, primary screen, cell-based, thallium flux, HTS (AID 488969)
# Conditions: HEK293 rat mGluR8, GIRK (G protein-gated inwardly rectifying potassium channel) thallium flux, FluoZin2; at 10 µM; stronger effect = higher value; submaximal glutamate (EC20) added with thallium
# Sequence of UniProt P70579 (P70579 whole entry, looked up): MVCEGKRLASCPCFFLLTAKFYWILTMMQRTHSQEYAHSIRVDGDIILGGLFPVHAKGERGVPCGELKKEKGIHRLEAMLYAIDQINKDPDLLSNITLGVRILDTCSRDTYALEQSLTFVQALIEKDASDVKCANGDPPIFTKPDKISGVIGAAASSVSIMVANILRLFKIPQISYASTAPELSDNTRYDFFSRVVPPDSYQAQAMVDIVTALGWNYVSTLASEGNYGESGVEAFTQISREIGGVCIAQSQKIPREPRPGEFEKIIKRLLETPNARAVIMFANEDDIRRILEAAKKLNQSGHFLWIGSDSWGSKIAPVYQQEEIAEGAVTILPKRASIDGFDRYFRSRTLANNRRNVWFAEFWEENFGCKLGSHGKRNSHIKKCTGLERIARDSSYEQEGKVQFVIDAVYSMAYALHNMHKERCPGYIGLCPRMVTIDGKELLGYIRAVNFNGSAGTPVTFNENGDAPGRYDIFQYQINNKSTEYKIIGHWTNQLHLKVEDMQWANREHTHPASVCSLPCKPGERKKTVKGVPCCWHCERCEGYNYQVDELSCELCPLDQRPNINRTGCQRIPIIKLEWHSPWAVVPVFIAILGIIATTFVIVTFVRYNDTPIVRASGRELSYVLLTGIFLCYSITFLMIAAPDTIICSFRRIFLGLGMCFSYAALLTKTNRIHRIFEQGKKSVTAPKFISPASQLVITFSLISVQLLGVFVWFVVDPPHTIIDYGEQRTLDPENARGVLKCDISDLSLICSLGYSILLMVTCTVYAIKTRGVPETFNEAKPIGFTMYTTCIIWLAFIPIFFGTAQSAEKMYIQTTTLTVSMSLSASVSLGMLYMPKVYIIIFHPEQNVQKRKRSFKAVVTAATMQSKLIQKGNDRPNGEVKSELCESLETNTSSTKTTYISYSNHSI
row,SMILES,z-score
1,O=C(NC(=S)Nc1ccccc1Cl)c1csnn1,active: 11.5
2,CSc1nc(C)cc(Oc2ccc(=O)n(C)n2)n1,-0.396
3,Brc1ccc(-c2nc(N/N=C/c3cccnc3)c3ccccc3n2)cc1,0.00562
4,CCOC(=O)COc1cc(Br)c(C2NC(=O)NC(C)=C2C(C)=O)cc1OCC (configuration not stated),-0.148
5,Cc1ccc(C)c(S(=O)(=O)NCc2ccc(C(=O)N3CC(C)OC(C)C3)cc2)c1 (configuration not stated),-0.226
6,CNC(=S)N1CCN(C(=O)C2CCCO2)CC1 (configuration not stated),-0.25
7,Cc1csc(NC(=O)CSc2nc3ccccc3s2)n1,-0.293
8,Cc1ccc(C)n1CCN1CCN(CC(=O)Nc2ccc(S(N)(=O)=O)cc2)CC1,-0.714
9,Cc1cc(NC(=O)CSc2nc(C(C)C)nc3ccccc23)no1,0.316
10,CC(C)COCC1CC2(CC(C)C(=O)CC2=O)C(=O)O1 (configuration not stated),-0.209
11,CCOc1ccccc1C1CC(=O)Nc2cc3c(cc21)OCCO3 (configuration not stated),-1.11
12,Cc1ccc(Oc2ccc(/C=N/O)cn2)cc1,-0.186
13,CCCCCCNC(=O)CSc1nccn1Cc1ccccc1,-0.493
14,N#C/C(=C/c1ccc(N2CCCCC2)o1)C(=O)Nc1ccc2ccccc2c1,0.00045
15,COCCCN1CN(S(=O)(=O)c2ccc(Cl)cc2)c2nc3ccccc3nc21,-1.48
16,COc1cc(NC(=O)Nc2ccccc2OC)c(OC)cc1NC(=O)CN1CCCCC1,-0.219
17,Cc1c([C@H]2[C@@H](CC#N)C2(C)C)c2ccccc2n1C,-0.384
18,N=c1c(C(=O)NC2CCCC2)cc2c(=O)n3ccccc3nc2n1CCN1CCOCC1,-0.359
19,Cc1ccc(CN2C(=O)CCC2(C)C(=O)NCc2cccnc2)cc1 (configuration not stated),-0.221
20,CCCCNC(=O)/C(C#N)=C/c1cccnc1,-0.197
21,C=CCn1c(SCC(=O)Nc2ccccc2OC)nnc1-c1ccccn1,0.0118
22,COC(=O)Cc1csc(Nc2c(C)n(C)n(-c3ccccc3)c2=O)n1,0.312
23,CCC(C)c1ccccc1NC(=O)C1CCCO1 (configuration not stated),-0.152

row,SMILES,z-score
1,CSCC[C@H](NC(=O)OC(C)(C)C)C(=O)N/N=C/c1c(C)[nH]c(=O)[nH]c1=O,0.0291
2,CCCCn1nnnc1NCc1ccc(N2CCCC2)cc1,0.182
3,Cc1ccc(NC(=O)c2ccc3ccccc3n2)nc1,-0.363
4,O=C(NCCNC(=O)c1ccc(Br)o1)c1ccc(Br)o1,0.887
5,Cc1ccccc1N1C(=O)c2cccc3c(N(C)CCO)ccc(c23)C1=O,-0.299
6,Cc1cccc(OC(=O)Cn2c(C(F)(F)F)nc3ccccc32)c1,-0.253
7,O=C(CCn1c(=O)sc2ccccc21)NCCCn1ccnc1,-0.0979
8,CCN(CC)S(=O)(=O)c1ccc(Cl)c(C(=O)Nc2cc(C)nn2-c2ccccc2C(F)(F)F)c1,-0.153
9,O=C1C=C(c2ccc(Cl)cc2)C(=O)N1Nc1ccccc1,-0.198
10,COc1ccc(-c2nnc(Sc3nc4ccccc4o3)c3ccccc23)cc1,-0.311
11,Cc1ccc(CN2C(=O)c3ccccc3C2C(=O)NCC2CCCO2)cc1 (configuration not stated),-0.147
12,Cc1ccccc1-c1nc2ccccc2[nH]1,0.0575
13,Nc1cc(N)nc(SCC(=O)N2CCc3ccccc32)n1,-0.0748
14,COC(=O)c1ccc2c(=O)n(CC3CCCO3)c(=S)[nH]c2c1 (configuration not stated),active: 7.72
15,CCn1c(Cc2ccccc2)nnc1SCC(=O)Nc1ccc(N2CCOCC2)c(Cl)c1,-0.645
16,COc1ccccc1NC(=O)C(=O)NCC1COc2ccccc2O1 (configuration not stated),-0.118
17,CC1CCCN(C(=O)Cn2cnc3c2c(=O)n(C)c(=O)n3C)C1 (configuration not stated),0.0575
18,O=C(CCn1cnc2ccccc21)N/N=C/c1ccccc1O,0.397
19,CCN(CC)S(=O)(=O)c1ccc(C(=O)NNC(=O)c2cccs2)cc1,-0.0626
20,CCn1c(CNC(=O)COc2ccc(C(C)C)cc2)nnc1SCC(=O)Nc1cc(F)ccc1C,-0.442
21,Cc1cc(S(=O)(=O)N2CCN(Cc3ccccc3)CC2)c(C)s1,-1.48
22,COC(=O)c1ccc(S(N)(=O)=O)o1,-0.204
23,O=c1[nH]c(N2CCc3ccccc32)nc2c1CCCC2,0.261

row,SMILES,z-score
1,N#Cc1c(NC(=O)c2cc(C3CC3)on2)sc2c1CCC2,1.73
2,NC(=O)C1CCN(c2nnnn2-c2ccccc2)CC1,-0.231
3,NS(=O)(=O)c1ccc(CNC(=O)NC2(c3ccccc3)CC2)cc1,0.359
4,COC(=O)C1=C(C)OC(N)=C(C#N)C1c1cccnc1 (configuration not stated),0.264
5,CC1CC(=O)c2cn3c(nc2C1)nc1ccccc13 (configuration not stated),-0.863
6,CCC(c1nnnn1CS(=O)(=O)c1ccc(C)cc1)N1CCN(c2nc3ccccc3s2)CC1 (configuration not stated),-0.234
7,CCOC(=O)c1cc2n(c1N)-c1ccccc1C2=O,active: 5.13
8,CC(=O)Nc1ccc(S(=O)(=O)NCc2ccccn2)cc1,0.0367
9,O=C(Nc1cccnc1)c1ccc(F)cc1,0.112
10,O=S(=O)(NCC1CCCO1)c1cc(Cl)ccc1Br (configuration not stated),-0.128
11,COc1ccc(CCn2c(C)nc3c(c(=O)c4ccccc4n3C)c2=O)cc1,-0.439
12,O=C(/C=C/c1ccc(F)cc1)N1CCCN(C(=O)/C=C/c2ccc(F)cc2)CC1,-0.668
13,COc1ccc(OCc2ccc(C(=O)O)cc2)cc1,-0.107
14,CN(C=[N+](C)C)c1cccc2c1C(=O)c1ccccc1C2=O,-0.254
15,Cc1ccc(-c2c3c(=O)n(C)c(=O)n(C)c3cn2Cc2ccccc2)cc1,-1.27
16,C/C(Cl)=C\CNC(C)c1ccccc1 (configuration not stated),-0.455
17,N#Cc1c(N)nc(SCc2ccccn2)c(C#N)c1-c1cccs1,-0.851
18,NC(=O)c1ccccc1N/C=C/C(=O)c1ccc(F)cc1,0.16
19,O=C(NCC(c1cccnc1)N1CCN(c2ccccc2F)CC1)C1CCCCC1 (configuration not stated),0.0811
20,COc1ccc(Cl)cc1-n1c(C)cc(C=O)c1C,-0.55
21,CC/C(C)=N/Nc1nc2sc3c(c2c(=O)[nH]1)CC(C)(C)OC3,-0.189
22,COc1cccc(CNc2nn[nH]n2)c1OC,-0.0527
23,CC(Sc1nnc(-c2ccccc2Br)n1-c1cccc(C(F)(F)F)c1)C(N)=O (configuration not stated),-0.394

row,SMILES,z-score
1,CCOCCCNC(=S)Nc1ccc2nc(N3CCCC3)cc(C)c2c1,-0.106
2,O=C(NCCNC(=O)C1CC2CCC1C2)C1CC2CCC1C2 (configuration not stated),0.248
3,CCOC(=O)C1CCCN(C(=O)/C=C/c2cccc([N+](=O)[O-])c2)C1 (configuration not stated),-0.328
4,O=C(CSc1nnc(-c2ccc(Cl)cc2)n1-c1ccc(Cl)cc1)N/N=C/c1ccco1,-0.696
5,Cc1ccc(C(=O)NCc2ccco2)cc1S(=O)(=O)Nc1cccc(C)c1C,-0.819
6,N#Cc1cc(C(=O)c2ccccc2OCC(=O)Nc2ccccc2)cn(C2CCCCC2)c1=O,-0.273
7,COc1ccc([C@H]2[C@H](C(C)=O)N3N=Cc4ccccc4C3C23C(=O)OC(C)(C)OC3=O)cc1 (some centres not stated),0.0618
8,COc1ccc(C)cc1NC(=O)CN(C)S(=O)(=O)c1cccs1,-0.217
9,CCn1c(N)c(C(=O)NCc2cccnc2)sc1=S,-0.0381
10,CCN1CCN(C(=O)Nc2ccc(Cc3ccc(NC(=O)N4CCN(CC)CC4)cc3)cc2)CC1,-0.0783
11,COc1ccc(S(=O)(=O)N2CCCC2C(=O)Nn2cnnc2)cc1 (configuration not stated),0.0765
12,CCOc1cc(NC(=O)c2ccco2)c(OCC)cc1NC(=O)Cc1cccc(OC)c1,-0.676
13,S=c1[nH]nc(Cc2cccc3ccccc23)n1-c1ccccc1,-0.324
14,CCc1cccc(C)c1N(C(=O)Cn1c(CO)nc2ccccc21)C(C)COC (configuration not stated),-0.0319
15,COc1ccc(NC(=O)CCCn2c(=O)oc3ccccc32)cc1Cl,-0.188
16,CC(=O)N1CCN=C1SCc1ccc(F)cc1,0.0688
17,Cc1cc(C(=O)COc2ccccc2Cl)c(C)n1-c1ccc2c(c1)OCO2,-0.101
18,CCOc1ccc(C2Nc3cccc4cccc(c34)N2)cc1OC,-0.132
19,COC(=O)C1C(=O)C2=C(CC1C)NC(=O)CC2c1ccc(O)c(OC)c1 (configuration not stated),-0.0388
20,CC1CN(C2CCN(S(=O)(=O)Cc3ccccc3)CC2)CC(C)O1 (configuration not stated),-0.223
21,CN1/C(=C\C(=O)Nc2ccc(F)cc2)C(C)(C)c2ccccc21,-0.216
22,O=C1CN(C(=O)c2cc3ccccc3o2)c2ccccc2N1,-0.144
23,COc1ccc(CCN2C(=S)NC3CC2(C)Oc2ccc([N+](=O)[O-])cc23)cc1OC (configuration not stated),-0.313

row,SMILES,z-score
1,Cc1nc(SCC(=O)Nc2ccc3c(c2)OCO3)c(C#N)c2c1CCCC2,-0.476
2,Cc1ccc(C2C(C#N)=C(N)N(N(C)C)C3=C2C(=O)CCC3)cc1 (configuration not stated),-0.179
3,O=C(/C=C/c1cccs1)Nc1cccc(NC(=O)/C=C/c2cccs2)n1,-0.703
4,CCOC(=O)NC(Nc1ccc(OC)cc1)(C(F)(F)F)C(F)(F)F,0.384
5,Cc1ccc(N=C(c2cccs2)N2CCOCC2)cc1,-0.444
6,COC(=O)c1ccccc1NC(=O)Nc1cnccn1,1.85
7,CCc1sc2nc(SCC(=O)Nc3cc(C)on3)n(-c3cccc(OC)c3)c(=O)c2c1C,-0.252
8,CC(OC(=O)CN(C)S(=O)(=O)c1ccc(Cl)cc1)C(=O)Nc1ncc(Cl)cc1Cl (configuration not stated),-0.285
9,CCc1c(C(=O)Nc2ccc(OC)cc2)[nH]c(C)c1C(C)=O,-0.234
10,O=[N+]([O-])c1cc(Cl)ccc1N1CCN(c2cccc(C(F)(F)F)c2)CC1,-0.145
11,CCC(C(=O)NC1CCCC1)N(C(=O)c1snc(C(N)=O)c1N)c1ccc2c(c1)OCCO2 (configuration not stated),0.572
12,Cn1c(SCC(=O)N2CCN(c3ccccc3)CC2)nnc1-c1cc2ccccc2o1,-0.0754
13,CC(C)C(=O)NC(Nc1cccc2cccnc12)C(Cl)(Cl)Cl (configuration not stated),-0.141
14,CCOC(=O)c1ccc(OCc2nc(-c3cccs3)no2)cc1,0.286
15,Cc1cc(C)cc(SCc2noc(C(=O)NCC3CCCO3)c2C(=O)O)c1 (configuration not stated),-0.238
16,CC1CN(c2c3c(nc4ncnn24)CCCC3)CC(C)O1 (configuration not stated),-0.374
17,Cc1ccc(Sc2ncnc3onc(C)c23)cc1,-0.0889
18,Cc1cccc(CCNC(=O)CN(C)S(=O)(=O)c2ccc3c(c2)c(=O)n(C)c(=O)n3C)c1,0.513
19,CCC(C)(C(=O)NC1CCCCC1)N(C(=O)c1cnccn1)c1c(C)n(C)n(-c2ccccc2)c1=O (configuration not stated),-1.37
20,COc1cc(NC(=O)N2CCOCC2)cc(OC)c1,0.0122
